Results from PMC12136788.
Some of the results follow.

B1: chr12:96943601:96943709:+|CDS|ENSG00000139350|unk|total|mutant (ssRNA)
RNA: GGGAGUUCUACAGUCCGACGAUCAACUCAGUGUUUCCUCCAAGAAAAAAUCCAGUAACUUCAAGUACUUCAGUAUUGCAUUCCCGUCCUCUUAAUGUUUUUAUGGGAUCUCCAGGGAAAGAGGAAAAUGAAAACCGUGAUCUACAACAGAGGAUUGAGCAUCA
B2: chr12:76029359:76029534:-|3pUTR|ENSG00000139289|msi1|FALSE|unique (ssRNA)
RNA: GGGAGUUCUACAGUCCGACGAUCAGAAGUUUAAAAAGCUAAAAGUUAAAAAUGGUGUAAUUAUGAAAAUCUAACACUCAAGAUAGUUUCUAAAAGGAAAUCAGUAGUUAAGGAUACCUGAUUUCAAAAUAUUUAAAGCAUAACCAACAGAGGAUUGAGCAUCA
B3: chr12:907890:907991:+|CDS|ENSG00000060237|msi1|total|mutant (ssRNA)
RNA: GGGAGUUCUACAGUCCGACGAUCGCCUCCUGCCAUGACGUCCAGCAGGAAGGGCACAUUCACAGAUGACUUGCACAAGUUGGCCGACAAUUGGGCCCGAGAUGCCAUGAAUCUCUCAGGCAGGAGAGGAAGCAAAGGGCACAUCAACAGAGGAUUGAGCAUCA
B4: chr10:94132299:94132400:+|CDS|ENSG00000138193|unk|FALSE|unique (ssRNA)
RNA: GGGAGUUCUACAGUCCGACGAUCUGAGUAUCGCGCCACCCUCCAAAGGACUUCAAUAUCGCAGUACAUCACCGGUUCUCUCCUAGAAGCAACCACGUCUUUGGGAGCAAGAAGUGGCCUUCUCAGUACUUUUGGAGGAUCCACCAACAGAGGAUUGAGCAUCA
B5: chr10:104129887:104130138:-|three_prime_utr|ENSG00000197748|control|control|control (ssRNA)
RNA: GGGAGUUCUACAGUCCGACGAUCAAAAAAUCAUUUCAUUUGGGUAAAAUGAUUUCCUUUUCUUUCUUACUGGGAAAUUGAAGUAGCAUGUCCUCUGAGUUGCAUGUUUUAGAUAAAAAAUUGUUUAAUUUUAGCCUUAAUUGUCAACAGAGGAUUGAGCAUCA
B6: chr12:27755550:27755651:+|3pUTR|ENSG00000061794|msi1|total|mutant (ssRNA)
RNA: GGGAGUUCUACAGUCCGACGAUCAUACUAAUGCUUAAUGGCAAUGAUUACUCCAGAGUUUUUUAAUUUUUACACUGGGGCAACCGACCCGGAGGUCUCUGAUUUCUUCUUGGUCUAAAGUGUUUUGAUUUUAUUUCUACAUAACAACAGAGGAUUGAGCAUCA
B7: chr3:100749155:100750494:-|three_prime_utr|ENSG00000154175|control|control|control (ssRNA)
RNA: GGGAGUUCUACAGUCCGACGAUCUGCCGCAUUCAUUUAAAGCUAUUUUGUUUACUAUGUAUAAAAGUCUACAAUCUAAUUAAUAGCAAUACUAGAUGUUUAUUAUUAGAAAAGAUUGCUGAGAGUAUUUAUCAGGUUUUACAACAACAGAGGAUUGAGCAUCA
B8: ENSG00000107863:be:win_2301|CDS|ENSG00000107863|bound_else_gene|NA|bound_elsewhere_windowed (ssRNA)
RNA: GGGAGUUCUACAGUCCGACGAUCAGACACUACCUGCUGGCUGCCCAAUGAUGCACGUCGAGAGGUCCACAUAAAAAGAAUGGAGGAAAGAAAAGCCUCGAGUACCAGUCCGCCUGGCGAUUCUUUGGCUUCCAUCCCAUUUAUCAACAGAGGAUUGAGCAUCA
B9: chr20:53567570:53567671:-|3pUTR|ENSG00000171940|unk|total|mutant (ssRNA)
RNA: GGGAGUUCUACAGUCCGACGAUCUCACAAGCUGAGCCAUAUGUACAUAAUCCCGAUUUUGUUUUCACCGUUUUGCACUUUUACCGCCUAUUUUUGAAGAUUAACACAUUUGCAAGAUGAUUGACUCAAUCUUUGCCUAAUCCACAACAGAGGAUUGAGCAUCA
B10: chr5:55135756:55136053:-|three_prime_utr|ENSG00000164287|control|control|control (ssRNA)
RNA: GGGAGUUCUACAGUCCGACGAUCGAAUUGCUUGAACCAGGGAGGCGGAAGUUGCAGUGAGCUGAGACCGUGCCACUGCUCUCUAGCUUGGCUGACAGAGUGAGACUCUGUCUCAAAAAAAAAAAUAUUUUUUUUGGAAAUUUUCAACAGAGGAUUGAGCAUCA
B11: chr15:63694043:63694144:-|CDS|ENSG00000103657|unk|total|mutant (ssRNA)
RNA: GGGAGUUCUACAGUCCGACGAUCAGGACCUAUGCUGAUAAACUGAGUCCCAAAGCCGUUCAAUCCUUGUUGGAUCUACUCUGCCGUCAGUUGAAGAAUUUAUUGUCCCAAACUGGUGUACUACAUAUGGCCUCUUUCGGAGAACAACAGAGGAUUGAGCAUCA
B12: chr5:32419879:32419980:-|CDS|ENSG00000056097|msi1|FALSE|unique (ssRNA)
RNA: GGGAGUUCUACAGUCCGACGAUCAGUUACUGCUGCCUAUGCACCAGCAGCCGCCACAGUUGCAGUUGCCAGGCCUGCUCCAGUAGCUGUUGCAGCUGCUGCAACAGCUGCUGCUUAUGGAGGCUACCCCACUGCACACACAGCCAACAGAGGAUUGAGCAUCA
B13: chr13:24435137:24435247:-|CDS|ENSG00000102699|unk|total|mutant (ssRNA)
RNA: GGGAGUUCUACAGUCCGACGAUCAAACCAACAGCAACUGAACCACUAUUUAAGAAAGUCAGUCCAUGGGAAACAUCUACUUCCCGCUUUUUUCCUAUUUUGGCUCCGGCCGUUGGUUCCUAUCUUCCCCCGACUGCCCGCGCUCAACAGAGGAUUGAGCAUCA
B14: ENSG00000070961:be:win_5351|3pUTR|ENSG00000070961|bound_else_gene|NA|bound_elsewhere_windowed (ssRNA)
RNA: GGGAGUUCUACAGUCCGACGAUCUCACCAGAUACACAAUCCUCAGGCUGACAUAAAGUUUACGAGGACUGCUACUAUAACUGAGAGUGCUGACCAAGCAAAGAAACAUUUAGUUGAUGGUGCUUGAUAUUUUUGGUGGGUGGGCAACAGAGGAUUGAGCAUCA
B15: chr3:152462637:152462738:+|3pUTR|ENSG00000152601|msi1|FALSE|unique (ssRNA)
RNA: GGGAGUUCUACAGUCCGACGAUCGAACAACAUUGUCUUUCUUUUCUAGCACAGAGUUAUGCAUUCAAAGAUGCAUACCUAGUUAGUUUCCUAUAUAUUCAUGCCAUCUUGAAAAGACAGACUAUGGUGUAACCAUGAUUCUAUCAACAGAGGAUUGAGCAUCA
B16: ENSG00000136451:be:win_2501|3pUTR|ENSG00000136451|bound_else_gene|NA|bound_elsewhere_windowed (ssRNA)
RNA: GGGAGUUCUACAGUCCGACGAUCUCCCAAUCAGAGCCUGUUGAUAUUACAACAGGGACAGAUGUGUUAGUUGCUCACUAGAGUUUAUGUCUUAUAUUAAAUUGUAUACAGUUUUUAUUCUAACCACUAACUAGGUAGUGUAUGCAACAGAGGAUUGAGCAUCA
B17: ENSG00000070961:be:win_3551|CDS_3pUTR|ENSG00000070961|bound_else_gene|NA|bound_elsewhere_windowed (ssRNA)
RNA: GGGAGUUCUACAGUCCGACGAUCACAAAAAUAACAAUGCUGUUGACAGUGGAAUUCACCUUACAAUAGAAAUGAACAAGUCUGCUACCUCUUCAUCCCCAGGAAGCCCACUACAUAGUUUGGAAACAUCACUCUGAUUGUAAGCAACAGAGGAUUGAGCAUCA
B18: chr2:171983412:171983537:+|3pUTR|ENSG00000128708|unk|FALSE|unique (ssRNA)
RNA: GGGAGUUCUACAGUCCGACGAUCUGAUGACUUUAAUUUUAAAAUCUUGUGACAUUUUGCUUAUACUAAAAGUUAUCUAUCUUUAGUUGAAUAUUUUCUUUUGGAGAGAUUGUAUAUUUUAAAAUACUGUUUAGAGUUUAUGAGCAACAGAGGAUUGAGCAUCA
B19: chr14:106088121:106088428:-|CDS|ENSG00000282639|control|control|control (ssRNA)
RNA: GGGAGUUCUACAGUCCGACGAUCGUCCGCCAGGCUCCAGGGAAGGGACUGGAAUAUGUUUCAGCUAUUAGUAGUAAUGGGGGUAGCACAUACUACGCAGACUCCGUGAAGGGCAGAUUCACCAUCUCCAGAGACAAUUCCAAGCAACAGAGGAUUGAGCAUCA
B20: ENSG00000136451:be:win_3651|3pUTR|ENSG00000136451|bound_else_gene|NA|bound_elsewhere_windowed (ssRNA)
RNA: GGGAGUUCUACAGUCCGACGAUCGGCAUGCAGACCCAAAACUGGGUUCUGGCUCUGCCUGCUGGGAUCUGUUAUCUCUGGUGGGCUGGCAGUCAUAAUUCACAAUUCAGACAGCCCAGGCUUCCUCCACAGUGGUCCAAGGAGCAACAGAGGAUUGAGCAUCA
B21: chr19:48922626:48922741:+|3pUTR|ENSG00000104805|msi1|total|mutant (ssRNA)
RNA: GGGAGUUCUACAGUCCGACGAUCUCCUCCGAGGGGCUUGCCUUCUCUCGUGUCCAGUGAGGUGCUCAGUGAUCGGCUUAACUCCGAGAAGCCCGCCCCCUCCCCUUCUCCGUCUGUCCCAAGAGGGUCUGCUCUGAGCCUGCGCAACAGAGGAUUGAGCAUCA
B22: chr9:124811826:124811928:+|3pUTR|ENSG00000185585|msi1|FALSE|unique (ssRNA)
RNA: GGGAGUUCUACAGUCCGACGAUCAAGAAAUUUUCUAGCCCAACUCCCUGUUUCAUGAAAGAGAAAAGAGGCUCAGAAAAGUUUAGAGAGCAGCUCAGUGUCACACUGGGAGCUGGGCACAGCCGAUCUCCUUCCAGAAGGGUUCAACAGAGGAUUGAGCAUCA

These binders were tested against MSI1 full-length (mouse, UniProt Q61474 1-362) (assay: nsRBNS (natural sequence RNA bind-n-seq); RBNS binding buffer (assumed for nsRBNS): 25 mM Tris pH 7.5, 150 mM KCl, 3 mM MgCl2, 0.01% Triton X-100, 500 ug/ml BSA, 20 U/ml SUPERase-In, 4 C; UNK is unkempt and MSI1 is Musashi-1; names of the RNAs are library labels; protein concentration not given here; high values mean tight binding).
Chain of UniProt Q61474 (Q61474 whole entry): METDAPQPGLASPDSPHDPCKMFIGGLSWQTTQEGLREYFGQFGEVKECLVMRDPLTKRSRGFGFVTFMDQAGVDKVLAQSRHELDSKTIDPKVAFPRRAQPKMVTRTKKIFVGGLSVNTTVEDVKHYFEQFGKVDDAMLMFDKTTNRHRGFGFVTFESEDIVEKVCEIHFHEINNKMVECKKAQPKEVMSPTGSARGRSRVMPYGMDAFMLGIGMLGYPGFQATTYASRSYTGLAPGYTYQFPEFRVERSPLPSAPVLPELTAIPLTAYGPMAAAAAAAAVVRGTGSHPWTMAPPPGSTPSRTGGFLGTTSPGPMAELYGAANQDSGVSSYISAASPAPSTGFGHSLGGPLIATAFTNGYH

Row | Binder | binding signal
1 | B1 | 0.361 enrichment R
2 | B2 | 10.2 enrichment R
3 | B3 | 0.364 enrichment R
4 | B4 | 0.43 enrichment R
5 | B5 | 4.3 enrichment R
6 | B6 | 0.497 enrichment R
7 | B7 | 4.63 enrichment R
8 | B8 | 0.452 enrichment R
9 | B9 | 0.666 enrichment R
10 | B10 | 0.454 enrichment R
11 | B11 | 0.265 enrichment R
12 | B12 | 0.284 enrichment R
13 | B13 | 0.396 enrichment R
14 | B14 | 0.373 enrichment R
15 | B15 | 10.2 enrichment R
16 | B16 | 25.2 enrichment R
17 | B17 | 0.698 enrichment R
18 | B18 | 3.32 enrichment R
19 | B19 | 1.24 enrichment R
20 | B20 | 0.488 enrichment R
21 | B21 | 0.734 enrichment R
22 | B22 | 0.831 enrichment R
